Publication PMC9855889
These are yes or no findings as the source states them, for the method shown. Some results given as binding are weak or reduced against the parent protein; the word gives no strength. Sequences can lack the tags named with a protein.

Amino acid sequences for entries named in this document (tags omitted).
UniProt P10591: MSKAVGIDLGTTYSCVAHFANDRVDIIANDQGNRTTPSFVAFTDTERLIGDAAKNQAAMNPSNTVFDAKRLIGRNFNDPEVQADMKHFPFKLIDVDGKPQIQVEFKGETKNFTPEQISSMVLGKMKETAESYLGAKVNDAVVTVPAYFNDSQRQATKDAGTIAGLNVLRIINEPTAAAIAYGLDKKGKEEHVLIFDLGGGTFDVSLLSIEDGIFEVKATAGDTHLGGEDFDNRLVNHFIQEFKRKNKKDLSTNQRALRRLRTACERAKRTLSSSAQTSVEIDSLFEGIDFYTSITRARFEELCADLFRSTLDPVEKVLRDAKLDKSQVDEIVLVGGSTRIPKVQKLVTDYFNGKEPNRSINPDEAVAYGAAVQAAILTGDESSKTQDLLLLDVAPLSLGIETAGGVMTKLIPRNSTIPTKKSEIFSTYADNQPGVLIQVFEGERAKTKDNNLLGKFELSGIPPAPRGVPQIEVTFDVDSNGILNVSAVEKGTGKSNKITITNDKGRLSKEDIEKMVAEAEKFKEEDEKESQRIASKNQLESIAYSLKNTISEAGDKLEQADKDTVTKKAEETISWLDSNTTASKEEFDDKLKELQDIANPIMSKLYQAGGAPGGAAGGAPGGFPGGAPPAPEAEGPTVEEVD

T1: α1-HA (Scl1-HA) (S. cerevisiae) (UniProt P21243)
T1 sequence: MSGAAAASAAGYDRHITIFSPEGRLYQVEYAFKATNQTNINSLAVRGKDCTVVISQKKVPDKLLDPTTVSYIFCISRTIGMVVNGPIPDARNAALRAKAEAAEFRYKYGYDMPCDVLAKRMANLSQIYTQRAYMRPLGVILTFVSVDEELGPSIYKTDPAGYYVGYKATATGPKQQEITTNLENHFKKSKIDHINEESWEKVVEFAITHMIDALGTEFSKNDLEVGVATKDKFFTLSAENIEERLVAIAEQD

T2: α4-HA (Pre6-HA) (S. cerevisiae) (UniProt P40303)
T2 sequence: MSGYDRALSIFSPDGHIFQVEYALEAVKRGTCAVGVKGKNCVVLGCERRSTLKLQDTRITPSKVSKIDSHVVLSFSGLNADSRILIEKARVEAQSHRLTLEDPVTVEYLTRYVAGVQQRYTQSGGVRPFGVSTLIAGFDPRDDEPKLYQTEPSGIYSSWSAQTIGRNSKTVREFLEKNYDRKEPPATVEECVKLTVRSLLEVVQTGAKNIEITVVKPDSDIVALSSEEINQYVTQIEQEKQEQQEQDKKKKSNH

T3: α2-HA (Pre8-HA) (S. cerevisiae) (UniProt P23639)
T3 sequence: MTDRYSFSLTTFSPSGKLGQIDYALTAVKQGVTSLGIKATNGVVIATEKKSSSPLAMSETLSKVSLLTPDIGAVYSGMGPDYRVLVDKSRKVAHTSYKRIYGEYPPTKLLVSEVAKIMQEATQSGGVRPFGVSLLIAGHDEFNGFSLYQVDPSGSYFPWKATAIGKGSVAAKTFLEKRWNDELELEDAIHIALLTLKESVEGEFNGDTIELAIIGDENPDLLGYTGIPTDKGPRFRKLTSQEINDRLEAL


How the values were obtained:
[1] = target: T1, α1-HA (Scl1-HA) (S. cerevisiae); test: native gel or EMSA; crude yeast extracts in 26S buffer (2 mM ATP), 4-15% native PAGE, anti-HA blot of the HA-tagged α subunit; +C bands compared in WT, sse1∆, sse1-G205D and ssa mutant strains; ATP or ADP (1 or 2 mM) added to ATP-free extracts restored the +C bands
[2] = target: T2, α4-HA (Pre6-HA) (S. cerevisiae); test: as above
[3] = target: T1, α1-HA (Scl1-HA) (S. cerevisiae); test: native gel or EMSA; crude yeast extracts prepared with 26S buffer without ATP (0 mM), native PAGE, anti-HA blot
[4] = target: T2, α4-HA (Pre6-HA) (S. cerevisiae); test: as above
[5] = target: T1, α1-HA (Scl1-HA) (S. cerevisiae); test: native gel or EMSA; crude yeast extracts in 26S buffer (2 mM ATP), 4-15% native PAGE, anti-HA blot of the HA-tagged α subunit; +C bands compared in WT, sse1∆, sse1-G205D and ssa mutant strains; ATP or ADP (1 or 2 mM) added to ATP-free extracts restored the +C bands; remark: listed apart in the source
[6] = target: T2, α4-HA (Pre6-HA) (S. cerevisiae); test: as above; remark: listed apart in the source
[7] = target: T3, α2-HA (Pre8-HA) (S. cerevisiae); test: as above

Molecule | binding [1] | binding [2] | binding [3] | binding [4] | binding [5] | binding [6] | binding [7]
Ssa1 (from UniProt P10591 1-642) | binds | binds | no binding (condition: extraction buffer without ATP) | no binding (condition: extraction buffer without ATP) | – | – | –
Sse1 (protein, UniProt P32589 1-693) MSTPFGLDLGNNNSVLAVARNRGIDIVVNEVSNRSTPSVVGFGPKNRYLGETGKNKQTSNIKNTVANLKRIIGLDYHHPDFEQESKHFTSKLVELDDKKTGAEVRFAGEKHVFSATQLAAMFIDKVKDTVKQDTKANITDVCIAVPPWYTEEQRYNIADAARIAGLNPVRIVNDVTAAGVSYGIFKTDLPEGEEKPRIVAFVDIGHSSYTCSIMAFKKGQLKVLGTACDKHFGGRDFDLAITEHFADEFKTKYKIDIRENPKAYNRILTAAEKLKKVLSANTNAPFSVESVMNDVDVSSQLSREELEELVKPLLERVTEPVTKALAQAKLSAEEVDFVEIIGGTTRIPTLKQSISEAFGKPLSTTLNQDEAIAKGAAFICAIHSPTLRVRPFKFEDIHPYSVSYSWDKQVEDEDHMEVFPAGSSFPSTKLITLNRTGDFSMAASYTDITQLPPNTPEQIANWEITGVQLPEGQDSVPVKLKLRCDPSGLHTIEEAYTIEDIEVEEPIPLPEDAPEDAEQEFKKVTKTVKKDDLTIVAHTFGLDAKKLNELIEKENEMLAQDKLVAETEDRKNTLEEYIYTLRGKLEEEYAPFASDAEKTKLQGMLNKAEEWLYDEGFDSIKAKYIAKYEELASLGNIIRGRYLAKEEEKKQAIRSKQEASQMAAMAEKLAAQRKAEAEKKEEKKDTEGDVDMD | – | – | no binding (condition: extraction buffer without ATP) | no binding (condition: extraction buffer without ATP) | binds | binds | binds
